Test results from publication PMC6537362, “Crystal structure of a cytocidal protein from lamprey and its mechanism of action in the selective killing of cancer cells” (Cell Communication and Signaling : CCS, 2019).

Biological target: LIP (lamprey immune protein) (Lethenteron camtschaticum, UniProt K7WEH5)
Conditions: PBS pH 7.4, 25 °C; 1:1 binding model; soluble SM as analyte

sphingomyelin [SM]
Kd: 10.8 µM
